# Publication PMC4424274, “Evaluation of [^11C]CB184 for imaging and quantification of TSPO overexpression in a rat model of herpes encephalitis” (European Journal of Nuclear Medicine and Molecular Imaging, 2015)
# Further values from the same series stand in other lists.
# How the values were obtained:
# TSPO [1] = molecular target: T1, TSPO (Rattus norvegicus, UniProt P16257); test: PET imaging, VOI-based SUV analysis in control and HSE rats; type: in vivo; conditions: PET 50 – 60 min after injection
# T1 construct: from tissue; host or cells: Brain regions and peripheral organs of male Wistar rats, measured in vivo by PET and ex vivo by gamma counting
# Method: PET scans were performed using a microPET Focus 220 camera (Siemens Medical Solutions Inc., Malvern, PA) on either day 6 or day 7 after inoculation with HSV-1 [18], depending on the severity of clinical symptoms. The rats were anaesthetized with 5 % isoflurane mixed with medical air at a flow rate of […]. After induction, anaesthesia was maintained with 1.5 – 2 % of isoflurane. The anaesthetized rats were positioned in the camera in a supine position with the head in the field of view. The PET tracer [^11C]CB184 was manually injected via the penile vein, and at the same time a dynamic 60-min scan was started. […] Therefore, it was decided to scan the remaining animals with a 30-min scan. For 30 min the animals were kept under anaesthesia on the operation table after injection of the PET tracer into the penile vein, and were then placed in the scanner for a 30-min dynamic scan. A transmission scan was obtained in all rats using a ^57Co point source for attenuation and scatter correction. In the pretreated group, 5 mg/kg unlabelled PK11195 (Sigma-Aldrich, St. Louis, MO) in dimethyl sulphoxide (DMSO) at a concentration of 10 mg/ml was administered via a tail vein 5 min before injection of the PET tracer.
# The list-mode data from the emission scan were reconstructed into three frames of 10 min for the dynamic 30-min scans, and into 21 frames (6 × 10 s, 4 × 30 s, 2 × 60 s, 1 × 120 s, 1 × 180 s, 4 × 300 s, and 3 × 600 s) for the 60-min dynamic scans. Emission sinograms were iteratively reconstructed (OSEM 2D, four iterations, and 16 subsets) after being normalized and corrected for attenuation and decay of radioactivity. PET images were analysed using VINCI 4.22 software (Max Planck Institute for Neurological Research, Cologne, Germany). […] Volumes of interest (VOI) for the different brain regions were defined by addition of previously constructed regions. Brain radioactivity concentrations were calculated from these regions of interest to generate time–activity curves (TACs). The TACs were corrected for injected dose and animal body weight, and expressed as SUV. Based on visual analysis of the TACs, it was decided to use the last 10-min frame of the scans obtained without arterial blood sampling for further SUV analysis of differences between groups, because at this point tracer uptake reached a plateau (see Fig. 2). No significant differences were observed between the 30-min and the 60-min scans, and their data were combined.
# TSPO [2] = molecular target: T1, TSPO; test: Ex vivo biodistribution of [^11C]CB184 in control and HSE rats; conditions: approximately 75 min after injection
# Method: PET scans were performed using a microPET Focus 220 camera (Siemens Medical Solutions Inc., Malvern, PA) on either day 6 or day 7 after inoculation with HSV-1 [18], depending on the severity of clinical symptoms. The rats were anaesthetized with 5 % isoflurane mixed with medical air at a flow rate of […]. After induction, anaesthesia was maintained with 1.5 – 2 % of isoflurane. The anaesthetized rats were positioned in the camera in a supine position with the head in the field of view. The PET tracer [^11C]CB184 was manually injected via the penile vein, and at the same time a dynamic 60-min scan was started. […] For 30 min the animals were kept under anaesthesia on the operation table after injection of the PET tracer into the penile vein, and were then placed in the scanner for a 30-min dynamic scan. A transmission scan was obtained in all rats using a ^57Co point source for attenuation and scatter correction. In the pretreated group, 5 mg/kg unlabelled PK11195 (Sigma-Aldrich, St. Louis, MO) in dimethyl sulphoxide (DMSO) at a concentration of 10 mg/ml was administered via a tail vein 5 min before injection of the PET tracer.
# The brain and peripheral organs were excised and dissected, and blood was centrifuged to collect a plasma sample. Tissues were weighed and radioactivity was measured in a gamma counter (LKB Wallac, Turku, Finland). Tracer uptake in each region was corrected for the injected tracer dose and body weight and expressed as standardized uptake value (SUV), which was defined as: radioactivity (MBq/cm^3)/[injected dose (MBq)/body weight (g)].
# [3] = HSE rats pretreated with 5 mg/kg PK11195
# [4] = control (PBS) rats pretreated with 5 mg/kg PK11195
smiles,measurement,setting,value
CCCN(CCC)C(=O)Cc1c(-c2ccc(O[11CH3])cc2)nc2c(Cl)cc(Cl)cn12 [[^11C]CB184],"SUV PET, Amygdala",TSPO [1]; [3],0.16 ± 0.05 SUV
same,"SUV PET, Cerebellum",TSPO [1]; [3],0.14 ± 0.03 SUV
same,"SUV PET, Frontal cortex",TSPO [1]; [3],0.18 ± 0.03 SUV
same,"SUV PET, Hippocampus",TSPO [1]; [3],0.12 ± 0.03 SUV
same,"SUV PET, Hypothalamus",TSPO [1]; [3],0.18 ± 0.05 SUV
same,"SUV PET, Medulla",TSPO [1]; [3],0.19 ± 0.06 SUV
same,"SUV PET, Midbrain",TSPO [1]; [3],0.13 ± 0.03 SUV
same,"SUV PET, Olfactory bulb",TSPO [1]; [3],0.26 ± 0.03 SUV
same,"SUV PET, Pons",TSPO [1]; [3],0.19 ± 0.05 SUV
same,"SUV PET, Remaining cortices",TSPO [1]; [3],0.15 ± 0.02 SUV
same,"SUV PET, Septum",TSPO [1]; [3],0.12 ± 0.03 SUV
same,"SUV PET, Striatum",TSPO [1]; [3],0.17 ± 0.05 SUV
same,"SUV PET, Thalamus",TSPO [1]; [3],0.11 ± 0.03 SUV
same,"SUV PET, Whole brain",TSPO [1]; [3],0.15 ± 0.02 SUV
same,"SUV PET, Amygdala",TSPO [1]; HSE rats,0.49 ± 0.14 SUV
same,"SUV PET, Cerebellum",TSPO [1]; HSE rats,0.62 ± 0.17 SUV
same,"SUV PET, Frontal cortex",TSPO [1]; HSE rats,0.42 ± 0.13 SUV
same,"SUV PET, Hippocampus",TSPO [1]; HSE rats,0.40 ± 0.11 SUV
same,"SUV PET, Hypothalamus",TSPO [1]; HSE rats,0.56 ± 0.10 SUV
same,"SUV PET, Medulla",TSPO [1]; HSE rats,0.86 ± 0.27 SUV
same,"SUV PET, Midbrain",TSPO [1]; HSE rats,0.42 ± 0.12 SUV
same,"SUV PET, Olfactory bulb",TSPO [1]; HSE rats,0.96 ± 0.18 SUV
same,"SUV PET, Pons",TSPO [1]; HSE rats,0.73 ± 0.17 SUV
same,"SUV PET, Remaining cortices",TSPO [1]; HSE rats,0.45 ± 0.06 SUV
same,"SUV PET, Septum",TSPO [1]; HSE rats,0.40 ± 0.16 SUV
same,"SUV PET, Striatum",TSPO [1]; HSE rats,0.38 ± 0.06 SUV
same,"SUV PET, Thalamus",TSPO [1]; HSE rats,0.33 ± 0.07 SUV
same,"SUV PET, Whole brain",TSPO [1]; HSE rats,0.52 ± 0.08 SUV
same,"SUV PET, Amygdala",TSPO [1]; [4],0.16 ± 0.02 SUV
same,"SUV PET, Cerebellum",TSPO [1]; [4],0.14 ± 0.02 SUV
same,"SUV PET, Frontal cortex",TSPO [1]; [4],0.14 ± 0.02 SUV
same,"SUV PET, Hippocampus",TSPO [1]; [4],0.13 ± 0.03 SUV
same,"SUV PET, Hypothalamus",TSPO [1]; [4],0.16 ± 0.03 SUV
same,"SUV PET, Medulla",TSPO [1]; [4],0.19 ± 0.04 SUV
same,"SUV PET, Midbrain",TSPO [1]; [4],0.11 ± 0.02 SUV
same,"SUV PET, Olfactory bulb",TSPO [1]; [4],0.21 ± 0.03 SUV
same,"SUV PET, Pons",TSPO [1]; [4],0.18 ± 0.03 SUV
same,"SUV PET, Remaining cortices",TSPO [1]; [4],0.14 ± 0.01 SUV
same,"SUV PET, Septum",TSPO [1]; [4],0.10 ± 0.01 SUV
same,"SUV PET, Striatum",TSPO [1]; [4],0.11 ± 0.03 SUV
same,"SUV PET, Thalamus",TSPO [1]; [4],0.12 ± 0.02 SUV
same,"SUV PET, Whole brain",TSPO [1]; [4],0.14 ± 0.01 SUV
same,"SUV PET, Amygdala",TSPO [1]; control rats,0.43 ± 0.11 SUV
same,"SUV PET, Cerebellum",TSPO [1]; control rats,0.48 ± 0.08 SUV
same,"SUV PET, Frontal cortex",TSPO [1]; control rats,0.44 ± 0.12 SUV
same,"SUV PET, Hippocampus",TSPO [1]; control rats,0.31 ± 0.09 SUV
same,"SUV PET, Hypothalamus",TSPO [1]; control rats,0.47 ± 0.15 SUV
same,"SUV PET, Medulla",TSPO [1]; control rats,0.47 ± 0.08 SUV
same,"SUV PET, Midbrain",TSPO [1]; control rats,0.33 ± 0.09 SUV
same,"SUV PET, Olfactory bulb",TSPO [1]; control rats,0.84 ± 0.13 SUV
same,"SUV PET, Pons",TSPO [1]; control rats,0.44 ± 0.11 SUV
same,"SUV PET, Remaining cortices",TSPO [1]; control rats,0.40 ± 0.07 SUV
same,"SUV PET, Septum",TSPO [1]; control rats,0.29 ± 0.12 SUV
same,"SUV PET, Striatum",TSPO [1]; control rats,0.29 ± 0.09 SUV
same,"SUV PET, Thalamus",TSPO [1]; control rats,0.26 ± 0.07 SUV
same,"SUV PET, Whole brain",TSPO [1]; control rats,0.41 ± 0.08 SUV
same,"SUV ex vivo, Amygdala/piriform cortex",TSPO [2]; [3],0.08 ± 0.06 SUV
same,"SUV ex vivo, Cerebellum",TSPO [2]; [3],0.11 ± 0.06 SUV
same,"SUV ex vivo, Cingulate/frontopolar cortex",TSPO [2]; [3],0.10 ± 0.05 SUV
same,"SUV ex vivo, Entorhinal cortex",TSPO [2]; [3],0.10 ± 0.05 SUV
same,"SUV ex vivo, Frontal cortex",TSPO [2]; [3],0.08 ± 0.05 SUV
same,"SUV ex vivo, Olfactory bulb",TSPO [2]; [3],0.17 ± 0.11 SUV
same,"SUV ex vivo, Trachea",TSPO [2]; [3],1.02 ± 0.70 SUV
same,"SUV ex vivo, Cerebellum",TSPO [2]; HSE rats,0.84 ± 0.41 SUV
same,"SUV ex vivo, Cingulate/frontopolar cortex",TSPO [2]; HSE rats,0.46 ± 0.21 SUV
same,"SUV ex vivo, Entorhinal cortex",TSPO [2]; HSE rats,0.57 ± 0.39 SUV
same,"SUV ex vivo, Frontal cortex",TSPO [2]; HSE rats,0.39 ± 0.09 SUV
same,"SUV ex vivo, Trachea",TSPO [2]; HSE rats,6.38 ± 3.30 SUV
same,"SUV ex vivo, Amygdala/piriform cortex",TSPO [2]; [4],0.10 ± 0.05 SUV
same,"SUV ex vivo, Cerebellum",TSPO [2]; [4],0.13 ± 0.08 SUV
same,"SUV ex vivo, Cingulate/frontopolar cortex",TSPO [2]; [4],0.24 ± 0.17 SUV
same,"SUV ex vivo, Entorhinal cortex",TSPO [2]; [4],0.09 ± 0.07 SUV
same,"SUV ex vivo, Frontal cortex",TSPO [2]; [4],0.10 ± 0.07 SUV
same,"SUV ex vivo, Olfactory bulb",TSPO [2]; [4],0.20 ± 0.08 SUV
same,"SUV ex vivo, Trachea",TSPO [2]; [4],0.81 ± 0.35 SUV
same,"SUV ex vivo, Amygdala/piriform cortex",TSPO [2]; control rats,0.30 ± 0.08 SUV
same,"SUV ex vivo, Cerebellum",TSPO [2]; control rats,0.52 ± 0.06 SUV
same,"SUV ex vivo, Cingulate/frontopolar cortex",TSPO [2]; control rats,0.36 ± 0.13 SUV
same,"SUV ex vivo, Entorhinal cortex",TSPO [2]; control rats,0.36 ± 0.13 SUV
same,"SUV ex vivo, Frontal cortex",TSPO [2]; control rats,0.44 ± 0.44 SUV
same,"SUV ex vivo, Olfactory bulb",TSPO [2]; control rats,1.06 ± 0.15 SUV
same,"SUV ex vivo, Trachea",TSPO [2]; control rats,5.56 ± 1.50 SUV
